Reference: the supplement of paper PMC9446081
Among all 39,000 compounds or so, about 220 (0.56%) showed activity. The list shows a part of the results.

These molecules were tested on Escherichia coli K-12 BW25113 (assay: relative growth (OD600 normalised to plate interquartile mean) (fraction); higher = less growth inhibition, active = 0.2 or less). Settings: 50 µM; LB; incubation time: overnight (16-24 h).
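Further: static incubation at 37 °C against the wild-type strain, values averaged over two biological replicates.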

Row | Compound | relative growth
1 | C[C@@H]1CCCCO[C@H](CN(C)C(=O)Nc2ccccc2)[C@H](C)CN([C@@H](C)CO)C(=O)c2cc(NC(=O)c3ccccc3)ccc2O1 | inactive: 0.982
2 | C[C@@H]1CN([C@@H](C)CO)C(=O)c2cc(NS(=O)(=O)c3ccc(F)cc3)ccc2O[C@@H](C)CCCCO[C@H]1CN(C)C(=O)Nc1cccc2ccccc12 | inactive: 1.06
3 | CC(C)NC(=O)N(C)C[C@H]1Oc2c(NS(=O)(=O)c3cccs3)cccc2C(=O)N([C@@H](C)CO)C[C@H]1C | inactive: 1.01
4 | CO[C@H](CN(C)S(=O)(=O)c1cccc(Cl)c1)[C@H](C)CN([C@@H](C)CO)S(=O)(=O)c1cccc(Cl)c1 | inactive: 1.01
5 | CC(C)N1C(=O)NC(=O)[C@@H]1CC(=O)O | inactive: 1.02
6 | O=C1O[C@H](c2ccccc2)[C@H](c2ccccc2)N2[C@H]1[C@@H](C(=O)N1CCCCCCC1)[C@]1(C(=O)Nc3ccc(C#CCCO)cc31)[C@H]2c1ccc(OCCO)cc1 | inactive: 1.05
7 | OC[C@@H]1O[C@H](O)[C@H](O)[C@H](O[C@@H]2O[C@H](CO)[C@H](O)[C@H](O[C@@H]3O[C@H](CO)[C@@H](O)[C@H](O)[C@@H]3O)[C@H]2O)[C@H]1O | inactive: 1
8 | C[C@@H]1CCCCO[C@@H](CN(C)C(=O)C2CCCCC2)[C@H](C)CN([C@H](C)CO)C(=O)c2cc(NC(=O)Cc3ccccc3)ccc2O1 | inactive: 0.991
9 | C[C@H]1CN([C@@H](C)CO)C(=O)c2cccc(NC(=O)C3CCOCC3)c2O[C@@H]1CN(C)Cc1ccccc1 | inactive: 0.989
10 | CN1CCCN=C1C=Cc1cccs1.O=C(O)c1cc2ccccc2c(Cc2c(O)c(C(=O)O)cc3ccccc23)c1O | inactive: 1.13
11 | COc1ccc(S(=O)(=O)Nc2ccc3c(c2)CC(=O)N([C@@H](C)CO)C[C@@H](C)[C@H](CN(C)Cc2ccc(Cl)c(Cl)c2)O3)cc1 | inactive: 0.944
12 | CC(C)(C)S(=O)N1Cc2cc(C(=O)N3CCN(Cc4ccccc4)CC3)nc(-c3cccc(C#CCC4CCCC4)c3)c2[C@H]1CCO (stereo partly specified) | inactive: 0.997
13 | CCCC(=O)N1CC[C@]2(CC1)CN([C@H](CO)c1c2c2ccc(cc2n1C)OC)C(=O)CN1CCOCC1 | inactive: 1
14 | COc1cc(O)c(C(C)=O)c(OC)c1 | inactive: 1.05
15 | C#CCN(C)CCCOc1ccc(Cl)cc1Cl.Cl | inactive: 0.97
16 | Cc1noc(C)c1S(=O)(=O)Nc1ccc2c(c1)C(=O)N([C@@H](C)CO)C[C@@H](C)[C@@H](CN(C)S(=O)(=O)c1ccc(Cl)cc1)O2 | inactive: 1.02
17 | C[C@H](CO)N1C[C@H](C)[C@H](CN(C)C(=O)Nc2cccc(Oc3ccccn3)c2)OCc2cn(nn2)CCCC1=O | inactive: 0.985
18 | C[C@@H]1CN([C@@H](C)CO)C(=O)c2cccc(NS(=O)(=O)c3cccs3)c2O[C@@H]1CN(C)S(C)(=O)=O | inactive: 0.975

Row | Compound | relative growth
19 | C[C@H]1CN([C@@H](C)CO)C(=O)c2cc(NS(=O)(=O)c3ccc(F)cc3)ccc2O[C@@H]1CN(C)S(=O)(=O)c1cn(C)cn1 | inactive: 0.98
20 | NC(=O)C[C@H](N)C(=O)O | inactive: 0.95
21 | COc1cc2c(cc1OC)C1C(=O)c3ccc4c(c3OC1CO2)C=CC(C)(C)O4 (stereo unspecified) | inactive: 1.02
22 | C[C@@H]1CN([C@H](C)CO)C(=O)c2cc(NC(=O)NC3CCCCC3)ccc2O[C@H]1CN(C)Cc1ccc(C(F)(F)F)cc1 | inactive: 1.02
23 | O=c1c(O)c(-c2ccc(O)c(O)c2)oc2c(O[C@@H]3O[C@H](CO)[C@H](O)[C@@H](O)[C@H]3O)c(O)cc(O)c12 | inactive: 0.987
24 | COc1ccc(CN(C)C[C@@H]2Oc3ccc(NS(C)(=O)=O)cc3CC(=O)N([C@H](C)CO)C[C@@H]2C)cc1 | inactive: 1
25 | COc1ccc(S(=O)(=O)N[C@@H]2CC[C@H](CC(=O)N3CCC(Cc4ccccc4)CC3)O[C@@H]2CO)cc1 | inactive: 0.979
26 | Cc1c2oc3c(C)ccc(C(=O)N[C@@H]4C(=O)N[C@@H](C(C)C)C(=O)N5CCC[C@H]5C(=O)N(C)CC(=O)N(C)[C@@H](C(C)C)C(=O)O[C@@H]4C)c3nc-2c(C(=O)N[C@@H]2C(=O)N[C@@H](C(C)C)C(=O)N3CCC[C@H]3C(=O)N(C)CC(=O)N(C)[C@@H](C(C)C)C(=O)O[C@@H]2C)c(N)c1=O | inactive: 0.954
27 | NCCCC[C@@H]1NC(=O)[C@@H](Cc2c[nH]c3ccccc23)NC(=O)[C@H](c2ccccc2)NC(=O)[C@@H]2C[C@@H](OC(=O)NCCN)CN2C(=O)[C@H](Cc2ccccc2)NC(=O)[C@H](Cc2ccc(OCc3ccccc3)cc2)NC1=O | inactive: 0.893
28 | CN1CCN(C)C1=O | inactive: 1.02
29 | COc1ccccc1CNC(=O)C[C@H]1C[C@H]2c3cc(NC(=O)c4cccnc4)ccc3O[C@H]2[C@@H](CO)O1 | inactive: 0.998
30 | C[C@@H]1CN([C@H](C)CO)C(=O)c2cc(NC(=O)CCCCCC(=O)Nc3ccccc3N)ccc2O[C@H]1CN(C)S(=O)(=O)c1cn(C)cn1 | inactive: 0.998
31 | Cc1noc(C)c1S(=O)(=O)Nc1ccc2c(c1)CC(=O)N([C@@H](C)CO)C[C@H](C)[C@@H](CN(C)S(C)(=O)=O)O2 | inactive: 1.01
32 | C[C@H](CO)N1C[C@H](C)[C@@H](CN(C)S(=O)(=O)c2ccc(Cl)cc2)Oc2ccc(N(C)C)cc2C1=O | inactive: 1
33 | Cc1ccc(S(=O)(=O)N(C)C[C@@H]2Oc3ncc(C#CCC(C)C)cc3C(=O)N([C@H](C)CO)C[C@@H]2C)cc1 | inactive: 0.994
34 | O=C(CCc1cn(CC[C@@H]2OC(=O)[C@H](Cc3ccccc3)N3CC4=CC(=O)[C@H](C5CC5)[C@H]4[C@H]23)nn1)NO | inactive: 1.02
35 | CC(C)CC#Cc1cnc2c(c1)C(=O)N([C@H](C)CO)C[C@H](C)[C@H](CN(C)S(=O)(=O)c1cccs1)O2 | inactive: 1.02
36 | COc1ccc(NC(=O)Nc2ccc3c(c2)C(=O)N([C@@H](C)CO)C[C@@H](C)[C@@H](CN(C)Cc2ccc(C(=O)O)cc2)OCCCC[C@H](C)O3)cc1 | inactive: 1.01
